Common to all, as to experiment: co-IP; lysates in 1% Triton X-100, 150 mM NaCl, 50 mM Tris-HCl pH 7.5; anti-HA or anti-V5 magnetic beads 1 hr at 4°C; wash with 300 mM NaCl; western blot; HEK293T cells (wild type, ADAM17 KO, FRMD8 KO, or iRhom1/2 DKO reconstituted with iRhom2^WT-3xHA; with or without 200 nM PMA for 30 min)
Experiment [1] deals with T1, human iRhom2^Δ201-300-3xHA (human) (UniProt Q6PJF5).
T1 sequence: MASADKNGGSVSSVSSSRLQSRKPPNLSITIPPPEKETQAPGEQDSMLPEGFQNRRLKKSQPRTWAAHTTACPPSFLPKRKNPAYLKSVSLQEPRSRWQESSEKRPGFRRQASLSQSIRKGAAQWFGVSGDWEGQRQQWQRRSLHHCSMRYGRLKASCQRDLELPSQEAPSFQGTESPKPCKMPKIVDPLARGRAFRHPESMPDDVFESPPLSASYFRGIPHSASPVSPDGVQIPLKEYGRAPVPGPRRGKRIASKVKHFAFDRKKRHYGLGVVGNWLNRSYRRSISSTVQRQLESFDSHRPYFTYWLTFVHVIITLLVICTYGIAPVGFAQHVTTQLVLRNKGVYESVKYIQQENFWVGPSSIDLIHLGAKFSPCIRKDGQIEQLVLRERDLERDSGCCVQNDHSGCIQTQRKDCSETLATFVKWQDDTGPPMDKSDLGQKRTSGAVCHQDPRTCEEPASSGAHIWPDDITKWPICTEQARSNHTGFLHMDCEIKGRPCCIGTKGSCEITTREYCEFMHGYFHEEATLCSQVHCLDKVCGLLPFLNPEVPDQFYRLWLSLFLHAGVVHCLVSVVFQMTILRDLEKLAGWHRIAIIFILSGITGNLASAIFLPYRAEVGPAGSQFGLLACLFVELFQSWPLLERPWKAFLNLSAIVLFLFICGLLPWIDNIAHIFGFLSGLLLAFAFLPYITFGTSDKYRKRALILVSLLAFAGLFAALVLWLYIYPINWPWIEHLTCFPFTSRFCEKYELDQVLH

The target of experiment [2] is T2, human iRhom2^Δ300-3xHA (human) (UniProt Q6PJF5).
T2 sequence: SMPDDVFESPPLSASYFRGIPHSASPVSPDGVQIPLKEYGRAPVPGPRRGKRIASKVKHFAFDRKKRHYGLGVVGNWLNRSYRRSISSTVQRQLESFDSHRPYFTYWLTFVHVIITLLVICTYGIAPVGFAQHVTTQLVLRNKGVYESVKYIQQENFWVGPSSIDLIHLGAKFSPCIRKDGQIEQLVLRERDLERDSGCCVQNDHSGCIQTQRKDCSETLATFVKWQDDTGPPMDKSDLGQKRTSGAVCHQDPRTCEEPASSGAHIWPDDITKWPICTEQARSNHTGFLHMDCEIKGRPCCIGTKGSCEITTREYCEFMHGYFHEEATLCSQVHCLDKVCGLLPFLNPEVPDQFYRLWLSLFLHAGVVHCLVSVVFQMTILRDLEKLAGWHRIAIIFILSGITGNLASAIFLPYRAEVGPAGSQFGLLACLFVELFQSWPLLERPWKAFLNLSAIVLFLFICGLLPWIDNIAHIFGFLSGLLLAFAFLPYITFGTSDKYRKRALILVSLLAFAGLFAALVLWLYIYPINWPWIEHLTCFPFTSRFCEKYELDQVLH

In experiment [3] the target is T3, mouse iRhom2^WT-3xHA (mouse) (UniProt Q80WQ6).
T3 sequence: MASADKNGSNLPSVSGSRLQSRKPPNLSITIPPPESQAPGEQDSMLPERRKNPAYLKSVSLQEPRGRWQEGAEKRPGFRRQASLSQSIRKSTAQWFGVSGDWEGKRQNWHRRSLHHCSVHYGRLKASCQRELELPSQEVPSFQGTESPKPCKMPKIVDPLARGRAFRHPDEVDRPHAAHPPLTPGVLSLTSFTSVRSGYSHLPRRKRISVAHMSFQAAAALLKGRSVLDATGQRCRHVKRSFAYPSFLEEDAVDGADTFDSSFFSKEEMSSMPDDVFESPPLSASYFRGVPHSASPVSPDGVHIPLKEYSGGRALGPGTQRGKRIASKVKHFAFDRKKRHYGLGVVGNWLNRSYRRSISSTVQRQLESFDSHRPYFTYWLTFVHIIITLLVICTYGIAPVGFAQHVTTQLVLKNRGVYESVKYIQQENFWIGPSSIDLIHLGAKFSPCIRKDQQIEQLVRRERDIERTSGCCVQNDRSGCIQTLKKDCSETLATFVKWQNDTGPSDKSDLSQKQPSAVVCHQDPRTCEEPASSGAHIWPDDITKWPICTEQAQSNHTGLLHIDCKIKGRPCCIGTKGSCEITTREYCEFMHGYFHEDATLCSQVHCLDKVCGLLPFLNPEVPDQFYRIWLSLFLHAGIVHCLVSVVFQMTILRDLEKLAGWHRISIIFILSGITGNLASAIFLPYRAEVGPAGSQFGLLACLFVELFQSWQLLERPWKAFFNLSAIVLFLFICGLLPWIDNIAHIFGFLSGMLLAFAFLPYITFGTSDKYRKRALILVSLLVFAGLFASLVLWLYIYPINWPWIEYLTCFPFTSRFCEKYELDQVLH

No constants are given. Whether binding was seen depends on the method and setting. Binding seen in cells or lysates may run through a third protein. Some binding calls cover weakened binding; strength is not graded here. Tags and fused reporters may be left off the sequences shown.

B1: human FRMD8-V5 (protein, UniProt Q9BZ67-1 1-464)
chain: MDGTEGSAGQPGPAERSHRSSVSSVGARAADVLVYLADDTVVPLAVENLPSLSAHELHRAVREVLQLPDIALDVFALWLVSPLLEVQLKPKHQPYKLGRQWPELLLRFTSAPDDDVAMDEPFLQFRRNVFFPKRRELQIHDEEVLRLLYEEAKGNVLAARYPCDVEDCEALGALVCRVQLGPYQPGRPAACDLREKLDSFLPAHLCKRGQSLFAALRGRGARAGPGEQGLLNAYRQVQEVSSDGGCEAALGTHYRAYLLKCHELPFYGCAFFHGEVDKPAQGFLHRGGRKPVSVAISLEGVHVIDSREKHVLLGLRFQELSWDHTSPEEEEPILWLEFDGDSEGTPVNKLLKIYSKQAELMSSLIEYCIELSQAAEPAGPQDSATGSPSDPSSSLAPVQRPKLRRQGSVVSSRIQHLSTIDYVEDGKGIRRVKPKRTTSFFSRQLSLGQGSYTVVQPGDSLEQG
With B1, the binding entry is “no binding” in experiment [1], “no binding” in experiment [2] and “binds” in experiment [3].
